# Source: PubChem BioAssay AID886 (National Center for Advancing Translational Sciences (NCATS), 2007)
# Screen size: about 73,000 compounds; about 2,500 (3.4%) were called active. Inconclusive means that the source gave no clear call. Such entries were picked first, then a sample of the others. The call rests on the fitted dose curve; in most records, active means well fitted inhibition curve with a large enough effect; inconclusive means small, poorly fitted or top-dose-only effect; inactive means no such curve, though single readings can be large or run the other way. A potency beside an inconclusive call is a rough fit, not a confirmed value.
# Target: 3-hydroxyacyl-CoA dehydrogenase type-2 (Homo sapiens) (UniProt Q99714)
# Test: qHTS Assay for Inhibitors of HADH2 (Hydroxyacyl-Coenzyme A Dehydrogenase, Type II); further: nearly all actives have a fitted effect of over 60% in size
# Conditions: recombinant HADH2, NADH fluorescence, beta-hydroxybutyryl-CoA; activity change, negative = inhibition: at 57.1 µM (top of the series)
# How it was run: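 Buffer 100 mM Tris-HCl pH 9.0/0.01% Tween-20; HADH2 20 nM; NAD+ 1 mM; beta-hydroxybutyryl-CoA 90 uM (all final). 15 min cpd preincubation, RT.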
# On the % scale 0 is the no-effect control and ±100 the full control effect; potency means the concentration at half of the fitted maximal effect; tags describe the fitted curve by direction and shape.
# Sequence of UniProt Q99714 (Q99714 whole entry, looked up): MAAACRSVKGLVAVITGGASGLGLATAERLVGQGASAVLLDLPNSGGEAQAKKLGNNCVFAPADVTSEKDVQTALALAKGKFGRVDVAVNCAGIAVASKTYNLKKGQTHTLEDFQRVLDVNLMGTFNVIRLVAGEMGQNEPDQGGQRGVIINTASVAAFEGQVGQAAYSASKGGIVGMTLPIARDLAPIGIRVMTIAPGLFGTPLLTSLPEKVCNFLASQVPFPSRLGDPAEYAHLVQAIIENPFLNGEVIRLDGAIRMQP
# Sequence of UniProt Q99714 (Q99714 whole entry, looked up): as above
Compound,Potency,"activity change, negative = inhibition"
CCN(c1cccc(C)c1)S(=O)(=O)c1ccc2[nH]c(=O)c(=O)[nH]c2c1,"inconclusive: 25.1 µM [inhibitor, single point]",
Cc1ccc(-n2nnc3c(=O)n(CC(=O)NCc4ccco4)cnc32)cc1,"inconclusive: 15.8 µM [inhibitor, partial curve]",
CC(C)c1nnc(NC(=O)CCC(=O)NCc2ccco2)s1,"inconclusive: 15.8 µM [inhibitor, partial curve]",
CCCCc1cc(=O)oc2cc(C)cc(OC(C)C(=O)O)c12 (stereo not given),active: 31.6 µM,
Nc1nc(-c2ccccc2)cc(N2CCCCC2)n1,"inconclusive: 20 µM [inhibitor, partial curve]",
Cc1[nH]nc2c1C(C1CC=CCC1)C(C#N)=C(N)O2 (stereo not given),inactive,
C[N+](C)(N)Cc1nc(-c2ccc(Cl)cc2)no1,,inactive: 0.798% [at 11.4 µM]
C[N+]1(C)CCc2cc(O)c(O)cc2[C@H]1Cc1ccc(O)c(O)c1,active: 1.26 µM,
CCC(=O)N1CC23C=CC(CC2CC12CCCCC2)O3 (stereo not given),"inconclusive: 1.26 µM [inhibitor, full curve]",
Cn1c(SCC(=O)OCC(=O)c2ccccc2)nnc1-c1cccs1,inactive,
CCOC(=O)c1cccc(NC(=O)C(C)N2C(=O)c3ccccc3C2=O)c1 (stereo not given),"inconclusive: 10 µM [inhibitor, partial curve]",
O=c1c2ccccc2nc2n1CCCCN2,"inconclusive: 31.6 µM [inhibitor, single point]",
Nc1nc2c(s1)CC(c1ccccc1)CC2 (stereo not given),"inconclusive: 39.8 µM [inhibitor, single point]",
Cc1cccc(-n2ncc3c(NC(C)C)ncnc32)c1,"inconclusive: 39.8 µM [inhibitor, single point]",
COc1ccc(Cn2nnnc2C(c2ccccc2OC)N2CCC(C(N)=O)CC2)cc1 (stereo not given),inactive,
COC(=O)C/C=C/C(C)C(OCc1cccc(-c2ccccc2)c1)C1CCCCC1 (stereo not given),"inconclusive: 3.98 µM [inhibitor, single point]",
CCOc1nc(-c2ccccc2)ccc1-c1noc(COc2ccccc2)n1,"inconclusive: 20 µM [inhibitor, partial curve]",
Cc1ccccc1NC(=O)c1nc[nH]c1C(=O)NCc1ccccc1,inactive,
COC(=O)c1ccc2c(=O)n3c(nc2c1)SCC(c1ccccc1)=N3,"inconclusive: 39.8 µM [inhibitor, single point]",
Cc1ccnc(SCCn2c(N(C)Cc3ccccc3)nc3c2c(=O)n(C)c(=O)n3C)n1,"inconclusive: 31.6 µM [inhibitor, single point]",
Cc1ccccc1SCC(=O)NC1CCOC1=O (stereo not given),"inconclusive: 39.8 µM [inhibitor, single point]",
COc1ccc(-c2ccc(-c3noc(-c4ccccc4F)n3)c(OC)n2)cc1,active: 12.6 µM,
CC(C)N(C)C,inactive,
COc1ccccc1CNc1ncncc1-c1cccnc1,"inconclusive: 20 µM [inhibitor, partial curve]",
Cc1ccc2[nH]c3c(c2c1)CCc1cn[nH]c1-3,"inconclusive: 10 µM [inhibitor, single point]",

Compound,Potency,"activity change, negative = inhibition"
O=C(c1ccccc1)C1CCc2occc2C1=O (stereo not given),"inconclusive: 39.8 µM [inhibitor, single point]",
Nc1nnc(-c2cc3ccccc3oc2=O)s1,inactive,
O=C(COc1ncnc2ccccc12)NCCC1=CCCCC1,inactive,
COc1ccc(-c2nnc(-c3ccc(N(C)C)cc3)o2)cc1,active: 7.94 µM,
CCC(=O)Nc1ccc2oc(-c3cccc(C)c3)nc2c1,active: 3.98 µM,
CCOC(=O)c1c(OCC)[nH]c2c1cc(O)c1ccccc12,active: 2.51 µM,
Cc1cc2c(c(=O)n1Cc1cccnc1)C(Cc1ccccc1)C(C#N)=C(N)O2 (stereo not given),active: 25.1 µM,
CNc1nc(-c2ccccc2OC)nc2ccccc12,"inconclusive: 25.1 µM [inhibitor, partial curve]",
N#Cc1nc(-c2ccc(OCc3ccc(Cl)cc3)cc2)oc1N1CCOCC1,"inconclusive: 5.01 µM [inhibitor, single point]",
CC1=C(C(=O)N2CCCCC2)C(c2cccs2)C2=C(CCCC2=O)N1 (stereo not given),"inconclusive: 39.8 µM [inhibitor, single point]",
NC(=O)c1ccccc1NS(=O)(=O)Cc1ccc(Cl)cc1,active: 20 µM,
CN1CCN(c2ccnc(-c3ccoc3)n2)CC1,active: 3.16 µM,
COc1ccc(/C(O)=C2/C(=O)C(=O)N(CCN3CCOCC3)C2c2ccc(C)cc2)cc1 (stereo not given),,inactive: -17.5% [at 11.4 µM]
O=C(CC1N=C2c3ccccc3N=C(SCc3ccc(Cl)cc3)N2C1=O)NCc1ccco1 (stereo not given),"inconclusive: 39.8 µM [inhibitor, single point]",
CCCS(=O)(=O)Nc1cc(C(F)(F)F)ccc1OCCOC,"inconclusive: 39.8 µM [inhibitor, single point]",
COC(=O)Cc1c(C)c2ccc(OCC(=O)N3CCOCC3)cc2oc1=O,active: 25.1 µM,
COc1ccc(C(=O)Cn2c(=O)c(CCC(=O)O)nn3c4ccccc4nc23)cc1OC,inactive,
O=C(CSc1nc2ccccc2c(=O)[nH]1)c1ccc(O)c(O)c1,active: 12.6 µM,
CCSc1nc2c(c(=O)[nH]c(=O)n2C)n1CC(O)COc1ccccc1C (stereo not given),"inconclusive: 31.6 µM [inhibitor, single point]",
COc1cc(C(=O)O)cc(OC)c1OCc1cc(C(=O)O)oc1C,"inconclusive: 31.6 µM [inhibitor, single point]",
c1ccc2nc(-c3nc4ccccc4[nH]3)ccc2c1,active: 31.6 µM,
COc1ccccc1CNc1cc(-c2ccccc2C(F)(F)F)ncn1,inactive,
O=C(CSc1nnnn1-c1ccccc1)Nc1nsc(-c2ccc(Cl)cc2)n1,"inconclusive: 0.316 µM [inhibitor, full curve, poor fit]",
O=C(Nc1nncs1)c1c(F)c(F)c(F)c(F)c1F,"inconclusive: 39.8 µM [inhibitor, single point]",
O=C(O)c1c(-c2ccccc2)c2oc3ccccc3c2[nH]c1=O,"inconclusive: 31.6 µM [inhibitor, single point]",
